Values marked as one replicate rest on one cluster of the flow cell; about a third of the high ones do not repeat.
The sequences below were run on ATP (assay: switch fluorescence ratio, 500 uM ATP over buffer (Cy3 cluster intensity, sum of 5 cycles each) (fold (ratio)); higher = stronger signal-on switching upon ATP binding; sequences stand for … in TCGTCGGCAGCGTCAGATGTGTATAAGAGACAGTTTTTTTTTTTTTTTTTTTTTTTTT…TC). Details: aptamer strand: ATP DNA aptamer (quencher-CACCTGGGGGAGTATTGCGGAGGAAGG + anchor), 100 nM annealed; ATP concentration: 500 uM; one replicate.
In short: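 Per cluster, summed Cy3 intensity from the target cycles was divided by that from the buffer cycles to give the fluorescence ratio, then averaged per switch-domain sequence. Clusters outside 100-1000 RFU were excluded. The Cy3-labelled switching-strand clusters, on a modified Illumina MiSeq flow-cell, were annealed to 100 nM quencher-labelled ATP aptamer and imaged in selection buffer, then after 15 min with 500 uM ATP at 22 °C, for five cycles with NaOH stripping and re-annealing between them.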
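Also: ATP exposure 15 min at 22 °C before imaging.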

Sequence | switch fluorescence ratio
ACGGCGCCAC | 1.14
ACGGCTGAGT | 1.03
ACGGCTTCAG | 0.976
ACGGGAGCCG | 0.951
ACGGGATTGT | 1.05
ACGGGCTGTA | 0.992
ACGGGGGGG | 1.01
ACGGGGTC | 0.974
ACGGGTTATA | 1.01
ACGGTAAAGT | 1.06
ACGGTGACTC | 1.16
ACGGTGGGCG | 0.967
ACGGTTATAG | 1.03
ACGGTTGCTA | 1.01
ACGTACCTTA | 1.4
ACGTAGGGTC | 1.1
ACGTATTGGG | 1.12
ACGTATTTCT | 1.11
ACGTCACTCT | 1.62
ACGTCATCTT | 1.11
ACGTCATG | 1.51
ACGTCCAGGA | 1.04
ACGTCGAGCC | 1.07
ACGTGACCGC | 1.26
ACGTGATAAA | 1.05

Sequence | switch fluorescence ratio
ACGTGATTAA | 1.01
ACGTGCGCTA | 1.67
ACGTGCTCAA | 1.11
ACGTGGGCAC | 1.04
ACGTGGGTAA | 1.01
ACGTGTATTG | 1.01
ACGTGTCG | 0.981
ACGTGTCGTG | 0.957
ACGTGTCTCG | 1.04
ACGTGTGCG | 0.89
ACGTGTTCGT | 1.04
ACGTGTTTAT | 1.02
ACGTTAATAG | 1.24
ACGTTAATTT | 1.16
ACGTTATGTA | 1.07
ACGTTCCCTT | 1.04
ACGTTGAGTA | 0.974
ACGTTGCGAT | 1.09
ACGTTGGTAC | 1.22
ACGTTTGAGC | 1.06
ACGTTTGGTT | 0.964
ACTAAGAGGC | 1.01
ACTAAGGAGT | 1.04
ACTAAGGGA | 1.03
ACTAATGGGT | 1.03

Sequence | switch fluorescence ratio
ACTAATTCTA | 1.01
ACTACACCGT | 1.31
ACTACATGGT | 1.02
ACTACCAGTG | 3.76
ACTACGAATA | 1.77
ACTACGTGTC | 1.25
ACTACTCAAT | 2.55
ACTACTTTCT | 1.01
ACTAGAAGGA | 1.07
ACTAGACGGC | 1.32
ACTAGAGACT | 1.03
ACTAGAGCAA | 1.36
ACTAGCAGAG | 1
ACTAGCCTGA | 1
ACTAGCGCAA | 5.22
ACTAGCT | 0.991
ACTAGGCCAT | 1.01
ACTAGGGCG | 1.04
ACTAGGGTGT | 1.07
ACTATACGAA | 1.22
ACTATGAGCA | 1.1
ACTATGCGTG | 1.01
ACTATGCTGG | 1
ACTATGGTAC | 1.1
ACTATGTCCT | 1.05

Sequence | switch fluorescence ratio
ACTATGTTGG | 0.931
ACTATTCATG | 1.02
ACTATTGAGT | 1.02
ACTCAAAGCT | 1.21
ACTCAAATGT | 1.04
ACTCAAGCGT | 1.15
ACTCAATTA | 1.04
ACTCATCCGG | 2.61
ACTCCACGCT | 1.26
ACTCCGGGGC | 2.05
ACTCCTGTTT | 1.14
ACTCCTTCAA | 2.33
ACTCGACCTA | 1.23
ACTCGAGAGC | 0.971
ACTCGCTGTT | 1.03
ACTCGGATCA | 0.965
ACTCGGTATC | 1.11
ACTCGTAAG | 1.02
ACTCGTGG | 0.974
ACTCGTTGGC | 1
ACTCTAGCTT | 1.22
ACTCTATCAT | 1.06
ACTCTGTAAT | 1.86
ACTCTGTGTT | 0.993
ACTCTTAGCT | 0.963

— the supplement of paper PMC10126150
